# Measured values from PubChem BioAssay AID686978 (National Center for Advancing Translational Sciences (NCATS), 2013).
# Several values for one entry are separate records, joined by “and”; a condition that tells them apart may be missing. Identical values can stand only once. Hit rate of the full screen: of about 420,000 compounds, about 64,000 (15%) were called active. Inconclusive results, whose numbers are uncertain, are shown with a selection of clear calls. The call rests on the fitted dose curve; in most records, active means well fitted inhibition curve with a large enough effect; inconclusive means small, poorly fitted or top-dose-only effect; inactive means flat fitted curve, though single readings scatter. Potencies of inconclusive entries are doubtful fits and often do not repeat.
# Assay: qHTS for Inhibitors of human tyrosyl-DNA phosphodiesterase 1 (TDP1): qHTS in cells in absence of CPT; further: nearly all actives have a fitted effect of over 55% in size
# Details: DT40 Tdp1-/- hTDP1 cells, no CPT, ATP luminescence, 48 h; activity change, negative = growth inhibition: at 46.2 µM (top of the series)
# Outline: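 Cells were dispensed at 400 per well, compounds added by pin tool, plates incubated ≥48 hr at 37 °C, then CellTiter-Glo added for 30 min at room temperature before luminescence reading. Line: DT40 Tdp1-/- complemented with hTDP1; camptothecin omitted.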
# On the % scale 0 is the no-effect control and ±100 the full control effect; potency means the concentration at half of the fitted maximal effect; tags describe the fitted curve by direction and shape.
Compound,"activity change, negative = growth inhibition",Potency
COc1ccc(C2=NC(=O)NC2c2ccc(OC)cc2)cc1 (configuration not stated),inactive: -23.4%,–
Cc1cccc(N(CC(=O)Nc2ccc(Br)cc2)S(C)(=O)=O)c1C,–,active: 20.6 µM
O=C(NNC(=O)c1cccnc1)Nc1ccccc1,inactive: -3.5%,–
O=C(Nc1ccc(CN2CCOCC2)cc1)c1ccc(-c2cc(Cl)ccc2Cl)o1,–,active: 23.1 µM
Cc1ccc(CN2CC(C(=O)Nc3ccc(C)c(S(=O)(=O)N4CCCCC4)c3)CC2=O)cc1 (configuration not stated),–,"inconclusive: 29.1 µM [inhibitor, single point]"
Cn1c(-c2ccccc2)cc2onc(-c3ccccc3)c2c1=O,–,active: 20.6 µM
COc1ccc(/C=N/NC(=O)c2cccnc2)cc1CN1CCN(c2ccc(F)cc2)CC1,inactive: -2.65%,–
COc1ccc(C(=O)NCc2ccc3c(c2)CCN3C(=O)c2ccncc2)cc1,–,"inconclusive: 29.1 µM [inhibitor, single point]"
CC(Oc1ccccc1)C(=O)NC1C(=O)N2C1SC(C)(C)C2C(=O)O (configuration not stated),inactive: 9.47%,–
C=CCN=C1SC(C)(C)C(=O)N1S(=O)(=O)c1ccc(C)cc1,–,"inconclusive: 11.6 µM [inhibitor, partial curve]"
COC(=O)C1C(OC)=CC(=O)C2CCCCC21 (configuration not stated),inactive: -1.26%,–
CCc1nc2ccc(C(=O)Nc3cccc(OCC(=O)N(C)C)c3)cn2c1N(C)Cc1ccc(N(C)C)cc1,–,"inconclusive: 29.1 µM [inhibitor, single point]"
O=C(NS(=O)(=O)c1ccccc1)c1cccc(Br)c1,inactive: 7.3%,–
CCOC(=O)c1cc2occc2n1CC(=O)N1CCCc2ccccc21,–,"inconclusive: 20.6 µM [inhibitor, single point]"
COc1ccccc1NC(C)=O,inactive: -1.69%,–
Cn1cncc1COC(=O)c1ccc(Cl)cc1,inactive: -6.89%,–
COc1ccc(CCN=C(NS(=O)(=O)c2ccc(Cl)cc2)c2ccccc2)cc1,–,"inconclusive: 29.1 µM [inhibitor, single point]"
OCCC1CN(Cc2ccc(Oc3ncccn3)cc2)CCN1C1CCCCC1 (configuration not stated),inactive: -7.96%,–
COc1ccc(CNC(=O)C[C@@H]2C[C@H]3c4cc(NC(=O)C5CCC5)ccc4O[C@H]3[C@@H](CO)O2)cc1,–,"inconclusive: 0.82 µM [inhibitor, full curve, poor fit]"
Cn1nccc1C(=O)NCc1ccc2c(c1)CCN2C(=O)c1ccc(F)cc1,–,"inconclusive: 29.1 µM [inhibitor, single point]"
Cc1c(CCOC(=O)c2cccc([N+](=O)[O-])c2)sc[n+]1CC(=O)c1ccccc1,–,"inconclusive: 18.4 µM [inhibitor, single point]"
O=C(Cc1cccs1)Nc1cccc(-c2nc3cc4ccccc4cc3[nH]2)c1,–,active: 13 µM
Cc1cccc(NC(=O)C[n+]2ccc(N(C)C)cc2)c1,–,"inconclusive: 18.4 µM [inhibitor, single point]"
COCC(=O)Nc1cc([N+](=O)[O-])ccc1C,–,"inconclusive: 25.9 µM [inhibitor, single point]"

Compound,"activity change, negative = growth inhibition",Potency
CCN(Cc1ccc2c(c1)OCCO2)C(=O)CSc1nc(C)nc2sc(C)c(C)c12,inconclusive: -35.7% [inhibitor],–
COc1ccccc1Nc1cc(C(=O)NCCCN(C)c2ccccc2)c2ccccc2n1,–,"inconclusive: 16.4 µM [inhibitor, partial curve, poor fit]"
O=C(Nc1ccc2c3c(cccc13)CC2)c1ccc(Br)o1,–,"inconclusive: 13 µM [inhibitor, single point]"
COc1ccccc1C(=O)NC(CCSC)C(=O)NCCCSc1ccccc1 (configuration not stated),–,"inconclusive: 29.1 µM [inhibitor, single point]"
CN1CCN(c2cc(-c3ccc(N(C)C)cc3)ncn2)CC1,inactive: -22.3%,–
COc1cccc(CNC(=O)c2ccc(Cn3c(SCc4ccccc4)nc4cccnc43)cc2)c1,–,"inconclusive: 29.1 µM [inhibitor, single point]"
CCOC(=O)C1=C(N)n2c(s/c(=C\c3cccs3)c2=O)=C(C(=O)OCC)C1c1cccs1 (configuration not stated),–,active: 6.51 µM
Cc1ccc(S(=O)(=O)c2nc(-c3ccco3)oc2SC(C)c2ccccc2)cc1 (configuration not stated),–,"inconclusive: 14.6 µM [inhibitor, single point]"
CCN(CC)CCN(Cc1cc2cc3c(cc2[nH]c1=O)OCCO3)C(=O)NC1CCCCC1,–,"inconclusive: 14.6 µM [inhibitor, partial curve]"
CCC(=O)N1c2ccc(S(=O)(=O)NCc3cccc(OC)c3)cc2CC1C (configuration not stated),–,"inconclusive: 14.6 µM [inhibitor, partial curve]"
COc1cc2ccnc(C=NO)c2cc1OC,–,active: 20.6 µM
FC(F)Oc1ccc(-c2csc(NNC3=NCCCCC3)n2)cc1,–,active: 14.6 µM
CCCNC(=S)Nc1ccc(F)cc1F,–,"inconclusive: 10.3 µM [inhibitor, partial curve, poor fit]"
COc1ccc(CN2C(=O)NC3(CCCCCC3)C2=O)cc1F,–,active: 14.6 µM
CCOC(=O)c1ccc(Oc2cc(C)nc(Cl)n2)cc1,inactive: -23.1%,–
CN(CC(=O)Nc1ccccc1Oc1ccccc1)Cc1ccccc1F,–,"inconclusive: 23.1 µM [inhibitor, single point]"
c1ccc2[nH]c(SCc3cn4ccccc4n3)nc2c1,inconclusive: -36.9% [inhibitor],–
COc1cc(C(=O)NCCCC2CCCC2)ccc1OC1CCN(C(C)=O)CC1,–,"inconclusive: 23.1 µM [inhibitor, single point]"
Cc1ccc(C)c(S(=O)(=O)N2CCN(C(=O)c3n[nH]c(=O)c4ccccc34)CC2)c1,–,"inconclusive: 29.1 µM [inhibitor, single point]"
Cc1n[nH]c(C)c1S(=O)(=O)N1CCCC(C(=O)N2CCc3ccccc32)C1 (configuration not stated),–,"inconclusive: 18.4 µM [inhibitor, single point]"
COC(=O)CNc1nc(-c2ccccc2F)nc2ccccc12,–,"inconclusive: 29.1 µM [inhibitor, single point]"
CCCCNC(=O)c1nc(C2CCN(S(=O)(=O)c3ccc(F)c(F)c3)CC2)oc1-c1ccccc1,–,active: 6.51 µM
COc1ccc(-c2ccc(CN3C(CC(C)C)C(=O)N(Cc4cn(Cc5ccco5)nn4)CCS3(=O)=O)cc2)cc1 (configuration not stated),–,active: 7.31 µM
COc1cc2c(C=O)c3c4c(cc(OC)c(OC)c4c2cc1OC)CCN3C,–,active: 11.9 µM

Compound,"activity change, negative = growth inhibition",Potency
Cc1nc(N/N=C/c2cccnc2)cc(N2CCOCC2)n1,–,"inconclusive: 29.1 µM [inhibitor, single point]"
CCCCN(CC)CCNC(=O)c1cc2c(-c3ccc(Cl)cc3)nn(C)c2s1,–,"inconclusive: 18.4 µM [inhibitor, single point] and inconclusive: 25.9 µM [inhibitor, single point]"
CC1CCCN(S(=O)(=O)c2ccc(NC(=O)c3nc(SC(C)C)ncc3Cl)cc2)C1 (configuration not stated),–,active: 13 µM
O=c1ccc(S(=O)(=O)N2CCCC2)cn1Cc1nc(-c2ccc(F)cc2)no1,–,"inconclusive: 16.4 µM [inhibitor, single point]"
Nc1ncnc2c1ncn2[C@@H]1O[C@H](CNCc2cccc(C#Cc3ccccc3)c2)[C@@H](O)[C@H]1O,–,"inconclusive: 7.31 µM [inhibitor, partial curve]"
Cc1ccc(C(=O)Nc2cccnc2)cc1S(=O)(=O)N1CCCC1,inactive: -15.6%,–
Cc1ccc2nc(-c3ccc(F)cc3)c(CC3CCCCC3)n2c1,–,"inconclusive: 18.4 µM [inhibitor, single point]"
CCn1c(C(=O)N2CCC(C(=O)NCCc3ccccc3)CC2)cc2sccc21,–,active: 25.9 µM
O=c1c2ccccc2nc(/C=C/c2cccc([N+](=O)[O-])c2)n1CCO,–,"inconclusive: 29.1 µM [inhibitor, single point]"
Cc1ccc(-n2c3nc(=O)n(C)c(=O)c-3cc3c(Cl)cccc32)c(C)c1,–,"inconclusive: 14.6 µM [inhibitor, partial curve]"
CCSc1ncnc2c1sc1nc3c(cc12)COC(C)(C)C3,–,"inconclusive: 29.1 µM [inhibitor, single point]"
Cc1cc(C(=O)N2CCN(c3ncccc3C#N)CC2)no1,inactive: -5.49%,–
Cc1nc(NCc2ccccn2)c2ccccc2n1,–,active: 10.3 µM
CCOC(=O)C1CCN(C(=O)c2cc3cc(C)ccc3[nH]2)CC1,–,"inconclusive: 29.1 µM [inhibitor, single point]"
O=C(Nc1ccc(Cl)cc1)Nc1ccon1,–,active: 14.6 µM
NC(=O)c1cc([N+](=O)[O-])ccc1NCC1CCCCC1,inactive: -18.2%,–
COc1ccc(C(=O)COc2ccc(C(C)=O)cc2OC)cc1OC,–,"inconclusive: 25.9 µM [inhibitor, single point]"
COc1cccc(N2CCN(c3ccc(N4C(=O)CCC4=O)cc3[N+](=O)[O-])CC2)c1,inconclusive: -32.7% [inhibitor],–
COc1ccccc1N1CCN(C(=O)c2ccc(S(=O)(=O)N3CCCC3)cc2)CC1,–,active: 16.4 µM
Cc1ccc(/C(N)=N/OC(=O)N2CCOCC2)cc1,–,"inconclusive: 29.1 µM [inhibitor, single point]"
Cc1ccc(CSc2sc(C(=O)c3ccccc3)c(N)c2C#N)cc1,–,"inconclusive: 20.6 µM [inhibitor, single point]"
CCCCN(Cc1ccccc1)C(=O)c1oc(=O)c2ccccc2c1-c1ccc(C)cc1,–,"inconclusive: 23.1 µM [inhibitor, single point]"
COC(=O)/C(=C\Nc1ccc(Cl)cc1Cl)NC(=O)c1ccc(OC)cc1,–,active: 4.11 µM
COc1ccc(CN2CCCC(C(=O)N3CCc4ccccc4C3)C2)cc1OC (configuration not stated),inactive: -15.6%,–
